PubChem BioAssay AID686979 (National Center for Advancing Translational Sciences (NCATS), 2013)
The whole screen tested about 420,000 compounds, of which about 50,000 (12%) were called active. Inconclusive means that the source gave no clear call. Such entries were picked first, then a sample of the others. The call rests on the fitted dose curve; in most records, active means well fitted inhibition curve with a large enough effect; inconclusive means small, poorly fitted or top-dose-only effect; inactive means flat fitted curve, though single readings scatter. No potency is given beside an inconclusive call; the fits are too rough.

Test: qHTS for Inhibitors of human tyrosyl-DNA phosphodiesterase 1 (TDP1): qHTS in cells in presence of CPT; further: nearly all actives have a fitted effect of over 55% in size
Conditions: chicken DT40 Tdp1-/-;hTDP1 cells + 20 nM CPT, ATP luminescence, 48 h; activity change, negative = growth inhibition: at 46.2 µM (top of the series) unless noted
Summary of the method: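 Cell growth measured by CellTiter-Glo luminescence after a minimum 48 h, 37 C compound exposure with 20 nM CPT in Tdp1-knockout DT40 cells stably expressing hTDP1, seeded 400/well; qHTS titration format.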
On the % scale 0 is the no-effect control and ±100 the full control effect; potency means the concentration at half of the fitted maximal effect; tags describe the fitted curve by direction and shape.

For `CCCn1c(N)c(N(CCOC)C(=O)c2ccc(N(C)S(=O)(=O)c3ccc(C)cc3)cc2)c(=O)[nH]c1=O`, which “activity change, negative = growth inhibition” value is on record?
The value was inactive: -9.8%.

With `CCCCC(=O)N1CCCC(c2nc(-c3cccc(OC)c3)no2)C1` (stereo unspecified) as the compound, how does the Potency read?
Its Potency is inconclusive [inhibitor, single point].

With `Cc1cc(C)cc(C(=O)OCC(=O)Nc2ncccn2)c1` as the compound, how does the “activity change, negative = growth inhibition” value read?
The value was inactive: -0.648%.

With `Cc1nc2sccn2c(=O)c1S(=O)(=O)N1CCN(c2cccc(Cl)c2)CC1` as the compound, how does the “activity change, negative = growth inhibition” value read?
Its value is inactive: -8.81%.

With `COCCN(Cc1ccco1)C(=O)Cn1ncc2c([nH]c3ccccc32)c1=O` as the compound, how does the Potency read?
The Potency was inconclusive [inhibitor, single point].

With `COc1cc2nc(CC(C)C)n(NC(=O)c3ccccc3)c(=O)c2cc1OC` as the compound, how does the “activity change, negative = growth inhibition” value read?
The value was inactive: -7.17%.

With `CCCCN1C(=O)CN(C2CCCCCC2)C(=O)C1c1ccc(OCC)c(OC)c1` (stereo unspecified) as the compound, how does the Potency read?
Its Potency is inconclusive [inhibitor, single point].

With `CN(C)c1ccc(C(C(=O)NCC2CCCO2)N(Cc2ccccc2)C(=O)c2snc(C(N)=O)c2N)cc1` (stereo unspecified) as the compound, how does the Potency read?
Its Potency is active: 10.3 µM.

For `O=c1c2c(nc3cc(-c4cccc(Cl)c4)[nH]n13)CCCC2`, which Potency is on record?
Its Potency is inconclusive [inhibitor, partial curve, poor fit].

For `CCOc1ccc(N(C(=O)c2snc(C(N)=O)c2N)C(C(=O)NCC2CCCO2)c2ccco2)cc1` (stereo unspecified), which Potency is on record?
Its Potency is inconclusive [inhibitor, single point].

Which Potency does the source give for `CCN(CC)S(=O)(=O)c1cc(NC(=O)Cc2ccc(S(=O)(=O)N3CCOCC3)s2)ccc1Cl` here?
Its Potency is active: 20.6 µM.

Which Potency does the source give for `CCOc1cc(/C=C/c2ccc3cccc([N+](=O)[O-])c3n2)ccc1O` here?
Its Potency is inconclusive [inhibitor, single point].

For `Cc1ccc(C(=O)NCC(=O)NCC(=O)OCc2ccc(Oc3ccc([N+](=O)[O-])cc3)cc2)cc1`, which Potency is on record?
Its Potency is inconclusive [inhibitor, single point].

For `COCCn1c(-c2ccc(F)cc2)nc2cccnc21`, which “activity change, negative = growth inhibition” value is on record?
Its value is inactive: 7.39%.

For `Cc1cc(NC(=O)NC(=O)c2ccc(F)cc2F)n[nH]1`, which “activity change, negative = growth inhibition” value is on record?
The value was inactive: 1.32%.

With `COc1cc(C(=O)OCC(=O)NC2CCCC2)cc(OC)c1OC` as the compound, how does the “activity change, negative = growth inhibition” value read?
The value was inactive: 9.39%.

With `CN(C)S(=O)(=O)c1cccc(NC(=O)c2cncc(Br)c2)c1` as the compound, how does the Potency read?
Its Potency is inconclusive [inhibitor, partial curve, poor fit].

With `CCN(CC)S(=O)(=O)c1cccc(-c2nnc(SCCOc3ccccc3)o2)c1` as the compound, how does the Potency read?
The Potency was active: 16.4 µM.

Which Potency does the source give for `Cc1nnc2ccc(-c3cccc(NS(=O)(=O)c4ccccc4[N+](=O)[O-])c3)nn12` here?
Its Potency is active: 23.1 µM.

Which Potency does the source give for `COc1cc(NC(=O)Nc2cccc(Cl)c2)c(OC)cc1NC(=O)CN1CCCCC1` here?
Its Potency is active: 16.4 µM.

Which Potency does the source give for `COc1ccc(/C=C/C(=O)N2CCCc3ccccc32)cc1` here?
Its Potency is active: 25.9 µM.

For `O=C(Cn1ncc2c(=O)oc3ccccc3c21)N1CCCc2ccccc21`, which Potency is on record?
The Potency was inconclusive [inhibitor, single point].

With `Cc1cccc(N2CCN(c3ccc(N4C(=O)CCCC4=O)cc3[N+](=O)[O-])CC2C)c1` (stereo unspecified) as the compound, how does the Potency read?
Its Potency is inconclusive [inhibitor, single point].

With `COc1ccc(C(=O)CC(=O)c2ccc(C)cc2)c(O)c1` as the compound, how does the Potency read?
The Potency was active: 4.61 µM.

With `CC(C)(C)c1cc(C(=O)NCCN2CCCC2)cc(C(C)(C)C)c1` as the compound, how does the Potency read?
The Potency was inconclusive [inhibitor, single point].

Which Potency does the source give for `O=C1CN(C(=O)c2c(F)cccc2F)C(c2ccccc2)c2cc(Br)ccc2N1` (stereo unspecified) here?
The Potency was inconclusive [inhibitor, single point].

For `Cc1ccc(-c2nnn3c2nc(NCCc2ccccc2)c2ccccc23)cc1`, which “activity change, negative = growth inhibition” value is on record?
The value was inactive: 1.89%.

Which Potency does the source give for `C/C(=N\Nc1ccccn1)c1ccc(N2CCOCC2)cc1` here?
Its Potency is inconclusive [inhibitor, partial curve, poor fit].

For `COc1ccc(N(CC(=O)Nc2ccc(C)cc2C)S(=O)(=O)c2c(C)n[nH]c2C)cc1`, which “activity change, negative = growth inhibition” value is on record?
The value was inactive: -10.9%.

For `Cc1cc(Br)cn2c(Cc3cccc(F)c3)c(-c3ccc(F)cc3)nc12`, which Potency is on record?
The Potency was inconclusive [inhibitor, single point].

For `Cc1ccc(/C=C/C(=O)NCc2cccs2)o1`, which Potency is on record?
The Potency was inconclusive [inhibitor, single point].

Which Potency does the source give for `CCSc1nnc(NC(=O)c2csc3c2CCCC3)s1` here?
Its Potency is inconclusive [inhibitor, single point].

With `Cn1c(NN)nc2c1c(=O)n(Cc1ccccc1)c(=O)n2C` as the compound, how does the “activity change, negative = growth inhibition” value read?
The value was inactive: 3.34%.

With `Cc1ccc2sc(N(CCCN(C)C)C(=O)c3ccc(S(=O)(=O)N(C)C)cc3)nc2c1C` as the compound, how does the “activity change, negative = growth inhibition” value read?
The value was inactive: -23%.

With `Cc1ccc(-c2nnc(Nc3cccc(Br)c3)c3ccccc23)cc1S(=O)(=O)N1CCCCC1` as the compound, how does the “activity change, negative = growth inhibition” value read?
Its value is inactive: -25.3%.

With `O=C(CCS(=O)(=O)Cc1ccc(Cl)cc1)NCCCN1CCN(c2ccccc2F)CC1` as the compound, how does the Potency read?
The Potency was active: 11.2 µM.

For `N#Cc1ccc(N)cc1OCCCN1CCCCC1`, which “activity change, negative = growth inhibition” value is on record?
Its value is inactive: 6.41%.

Which Potency does the source give for `CCc1ccc(CN(Cc2ccco2)C(=O)COc2ccccc2Cl)cc1` here?
The Potency was inconclusive [inhibitor, single point].

For `CN1OC[C@@H]2CN(S(=O)(=O)c3cccc4ccccc34)[C@H](c3ccc(-c4cccnc4)cc3)C[C@@H]21`, which Potency is on record?
The Potency was inconclusive [inhibitor, single point].

With `Cc1ccc(CSC(Nc2ccc(F)cc2)=C(C#N)C#N)cc1` as the compound, how does the Potency read?
Its Potency is active: 3.66 µM.

With `O=C(N/N=C/C(Br)=C\c1ccccc1)c1cccs1` as the compound, how does the Potency read?
The Potency was active: 14.6 µM.

With `Cc1cc(C(=O)Nc2ccc3c(c2)OCCO3)c(C)o1` as the compound, how does the Potency read?
Its Potency is inconclusive [inhibitor, single point].

With `O=C(NCC[C@@H]1CC[C@@H](NS(=O)(=O)c2ccccc2)[C@@H](CO)O1)c1cc(Cl)cc(Cl)c1` as the compound, how does the Potency read?
The Potency was inconclusive [inhibitor, single point].

Which Potency does the source give for `COc1ccc(NC(=O)CSCC(=O)N(C)CC(=O)Nc2ccc(Cl)c(C(F)(F)F)c2)cc1` here?
The Potency was inconclusive [inhibitor, single point].

For `Cc1ccc(C)c(C(=O)CSc2nc(-c3ccccc3)nc3c2CCCC3)c1`, which Potency is on record?
Its Potency is inconclusive [inhibitor, single point].

For `CCn1cc(/C=C/C(=O)Nc2c(C)nn(Cc3ccccc3)c2C)cn1`, which Potency is on record?
Its Potency is inconclusive [inhibitor, single point].
